Source: US20110028422A1 (priority 2007, published 2011)
pIC50: −log10 of the molar value. Read-outs that look alike come from different tables or passages of the source.

Columns and labels:
[1] = tested on: lymphocytes from B-CLL patients; experiment: cells; settings: Homo sapiens, 72 h, single agent, MTT 72 h
[2] = tested on: lymphocytes from B-CLL patients; settings: for patients tested whose CLL lymphocytes were sensitized (synergistic plus additive effect) to CLB: MTT
[3] = B-CLL lymphocytes of patient 9 (clinically untreated)
[4] = B-CLL lymphocytes of patient 14 (prior chlorambucil therapy)
[5] = B-CLL lymphocytes of patient 15 (prior chlorambucil therapy)
[6] = B-CLL lymphocytes of patient 16 (prior chlorambucil therapy)
[7] = B-CLL lymphocytes of patient 18 (prior chlorambucil therapy)

Row | SMILES | pIC50 [1, 3] | pIC50 [1, 4] | pIC50 [1, 5] | pIC50 [1, 6] | pIC50 [1, 7] | sensitization of B-CLL lymphocytes to CLB compared with imatinib ([2]; 5 or 10 μM, FIGURE, p<0.001) | patients tested whose CLL lymphocytes were sensitized (synergistic plus additive effect) to CLB ([2]; c-abl inhibitor at 1 μM) [%] | patients tested whose CLL lymphocytes were sensitized (synergistic plus additive effect) to CLB ([2]; c-abl inhibitor at 5 μM) [%] | patients tested whose CLL lymphocytes were sensitized (synergistic plus additive effect) to CLB ([2]; c-abl inhibitor at 10 μM) [%]
1 | O=C(O)CCCc1ccc(N(CCCl)CCCl)cc1 [CLB, chlorambucil] | 4.93 | 5.09 | 4.30 | 5.34 | 4.18 | – | – | – | –
2 | Cc1cn(-c2cc(NC(=O)c3ccc(C)c(Nc4nccc(-c5cccnc5)n4)c3)cc(C(F)(F)F)c2)cn1 [Nilotinib, 4-methyl-3-[[4-(3-pyridinyl)-2-pyrimidinyl]amino]-N-[5-(4-methyl-1H-imidazol-1-yl)-3-(trifluoromethyl)phenyl]benzamide] | < 4.00 | 4.48 | 4.70 | 5.02 | 4.54 | statistically more potent | 84.6 | 100 | 90.5
